The results in this text go back to publication PMC12016936.

Sequences of proteins named here, by UniProt entry; tags and fusion partners are left off. A change or cut given only in a name is not applied to a line headed by its entry. A line that says so, or that is headed by a name, gives the form on record, which may keep a tag or linker.
UniProt O43791: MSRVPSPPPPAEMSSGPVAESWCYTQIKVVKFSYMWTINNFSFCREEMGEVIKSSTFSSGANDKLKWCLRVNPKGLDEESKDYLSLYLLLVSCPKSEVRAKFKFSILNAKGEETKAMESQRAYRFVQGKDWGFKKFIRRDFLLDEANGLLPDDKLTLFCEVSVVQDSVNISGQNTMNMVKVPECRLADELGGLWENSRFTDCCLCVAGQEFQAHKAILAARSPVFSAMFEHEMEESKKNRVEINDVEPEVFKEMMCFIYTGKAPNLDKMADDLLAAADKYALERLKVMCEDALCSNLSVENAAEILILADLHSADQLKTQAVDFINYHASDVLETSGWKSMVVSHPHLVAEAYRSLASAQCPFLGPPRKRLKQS
FLAG-SPOP-3KR (O43791, form named): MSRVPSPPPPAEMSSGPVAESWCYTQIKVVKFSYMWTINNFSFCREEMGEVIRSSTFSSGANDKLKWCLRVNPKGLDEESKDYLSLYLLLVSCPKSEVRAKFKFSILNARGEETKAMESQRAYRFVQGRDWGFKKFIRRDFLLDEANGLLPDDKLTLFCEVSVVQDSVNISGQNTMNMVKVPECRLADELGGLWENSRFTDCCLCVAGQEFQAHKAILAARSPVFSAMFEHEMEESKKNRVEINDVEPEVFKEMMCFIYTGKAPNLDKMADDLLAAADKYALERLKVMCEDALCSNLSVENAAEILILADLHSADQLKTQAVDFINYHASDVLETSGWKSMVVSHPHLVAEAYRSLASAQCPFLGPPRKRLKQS
UniProt O75925: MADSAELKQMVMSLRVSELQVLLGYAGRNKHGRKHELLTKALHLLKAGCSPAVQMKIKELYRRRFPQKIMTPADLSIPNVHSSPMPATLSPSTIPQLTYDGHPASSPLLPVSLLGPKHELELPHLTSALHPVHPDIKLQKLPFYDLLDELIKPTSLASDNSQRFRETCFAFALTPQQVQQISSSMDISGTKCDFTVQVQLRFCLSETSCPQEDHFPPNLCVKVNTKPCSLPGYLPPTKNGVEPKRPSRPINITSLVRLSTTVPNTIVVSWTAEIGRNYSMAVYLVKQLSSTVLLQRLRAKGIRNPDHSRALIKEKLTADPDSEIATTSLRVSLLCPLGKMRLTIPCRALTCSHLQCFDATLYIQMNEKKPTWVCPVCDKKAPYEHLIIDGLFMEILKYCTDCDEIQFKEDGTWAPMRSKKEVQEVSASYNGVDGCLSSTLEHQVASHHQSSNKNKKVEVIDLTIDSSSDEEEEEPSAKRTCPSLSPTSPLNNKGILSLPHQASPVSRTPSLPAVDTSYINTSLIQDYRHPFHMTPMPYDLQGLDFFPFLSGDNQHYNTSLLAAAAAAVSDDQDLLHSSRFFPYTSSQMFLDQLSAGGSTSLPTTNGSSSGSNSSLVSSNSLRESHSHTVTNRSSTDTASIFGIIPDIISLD

One assay concerns the target GST-SPOP (UniProt O43791). Kind of assay: pull-down; GST-SPOP immobilised on glutathione-Sepharose beads, incubated 2 h with lysates of Myc-PIAS1-transfected HEK-293T cells; pull-down buffer 20 mM Tris-HCl pH 7.5, 150 mM NaCl, 0.1% NP-40, 1 mM DTT, 10% glycerol, 1 mM EDTA, 2.5 mM MgCl2; cells with or without olaparib (10 μM) and silmitasertib; lysates with or without λ protein phosphatase; only the target purified.

Another assay deals with FLAG-SPOP-3KR (UniProt O43791). As to the kind of experiment: co-IP; in vivo SUMOylation assay: HEK-293T cells transfected with FLAG-SPOP-WT or -MUT and Myc-PIAS1, olaparib (10 μM), 20 μM MG132 for 8 h; anti-FLAG magnetic beads overnight at 4°C; blot with anti-FLAG, anti-Myc, anti-SUMO1.
Another assay concerns the target FLAG-SPOP-K53R (UniProt O43791). Described as above.
The target in another assay is FLAG-SPOP-K129R (UniProt O43791). The assay is described as above.
The next assay deals with FLAG-SPOP-K110R (UniProt O43791). The assay is described as above.
Assay [1] deals with FLAG-SPOP-WT (UniProt O43791). The assay is described as above.
A further assay has as its target SPOP-F133L (UniProt O43791). Kind of assay: co-IP; in vivo interaction assay of SPOP-WT or PCa-associated SPOP mutants with PIAS1 under olaparib treatment; mutants also co-expressed with SPOP-WT.
In another assay the target is SPOP-L90V (UniProt O43791). Described as above.
Another assay deals with SPOP-F125V (UniProt O43791). The assay is described as above.
The next assay addresses SPOP-K101I (UniProt O43791). Described as above.
The next assay concerns the target SPOP-K129E (UniProt O43791). Described as above.
The target of assay [2] is FLAG-SPOP-WT (UniProt O43791). The description is as above.
Assay [3] concerns the target FLAG-SPOP-WT (UniProt O43791). Kind of assay: co-IP; in vivo interaction assay, exogenous PIAS1 and SPOP; HEK-293T cells (legend; the text says PC-3); cells with or without olaparib (10 μM).
The target in assay [4] is SPOP (endogenous) (human (endogenous in PC-3 or HEK-293T)) (UniProt O43791). As to the kind of experiment: co-IP; in vivo interaction assay, endogenous PIAS1 and SPOP; HEK-293T cells (legend; the text says PC-3); cells with or without olaparib (10 μM).

Results are given in words; binding and its absence hold for the method and conditions named. Binding seen in cells or lysates may run through a third protein. Some binding calls cover weakened binding; strength is not graded here.

Regarding “Myc-PIAS1-S468A (from UniProt O75925 1-651)”, the binding result with GST-SPOP is listed as “binds”.

For the substance “Myc-PIAS1-WT (from UniProt O75925 1-651)”, the binding entry with FLAG-SPOP-3KR, with FLAG-SPOP-K53R, in the assay with FLAG-SPOP-K129R, with FLAG-SPOP-K110R, in the assay with FLAG-SPOP-WT [1] and with GST-SPOP was “binds” in each case. For the same substance, the binding result with SPOP-F133L was “no binding”; with SPOP-L90V it was “no binding”; in the assay with SPOP-F125V, “no binding”; with SPOP-K101I it was “no binding”; in the assay with SPOP-K129E, “no binding”; with FLAG-SPOP-WT [2], “binds”. Further, the binding entry in the assay with FLAG-SPOP-WT [3] is recorded as “binds”.

“PIAS1 (endogenous) (from UniProt O75925 1-651)”: the binding result in assay [4] is “binds”.
